Several values for one entry are separate records, joined by “and”; a condition that tells them apart may be missing. Equal entries are not always repeated.
Molecular target: the molecule itself
Test: SEC + native gel or EMSA; Z AAT polymers extracted from explanted liver, separated by metal affinity, ion exchange and Superdex 200 Increase size exclusion; fractions on nondenaturing PAGE, ~4 μg per lane

B1: Z alpha-1-antitrypsin (E342K) polymers from explanted human liver (natural protein)
chain: not shown
notes: alpha-1-antitrypsin (AAT), human, Z variant (c.1096G>A, p.Glu366Lys); numbers count on: the mature protein; E342 is E366 on the precursor (p.Glu366Lys printed); Tissue-derived; also called Z AAT; liver-derived polymers
In the case of B1, the “stoichiometry N” value is reported as 2 and 3.

Reference: PMC12057664, “High-resolution characterization of ex vivo AAT polymers by solution-state NMR spectroscopy” (Science Advances, 2025)
